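Interpolation was linear, between the two tested concentrations surrounding the appropriate level; five concentrations were tested over 48 hours in 96-well plates. GI50 = concentration required for 50% inhibition of growth. TGI denotes the concentration required for complete inhibition of growth.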
Tested on: NCI-H322M lung
Assay: NCI tumour cell line growth inhibition, 48 h

| Structure (SMILES) | GI50 [µM] | TGI [µM] |
| --- | --- | --- |
| CN1CCN(Cc2ccc(NC(=O)c3cncc(C#Cc4cnc5ccc(NCCO)nn45)c3)cc2C(F)(F)F)CC1 | 0.337 | 1.87 |
| CC1(C)CC[C@]23CC[C@]4(C)[C@H](CC[C@@H]5[C@@]6(C)CC[C@H](N)C(C)(C)[C@@H]6CC[C@]54C)[C@H]2[C@H]1OC3 | 1.63 | 3.08 |
